Each structure is given as a SMILES string. Out of some 44,000 compounds screened, about 340 (0.77%) were called active. Another 5% or so got no clear call; they are omitted. Calls come from the whole dose curve; as a rule, active = well fitted inhibition curve with a large enough effect; inconclusive = small, poorly fitted or top-dose-only effect; inactive = flat fitted curve, though single readings scatter. This is one part of the list.
Potency is the fitted concentration of half-maximal effect.

The nature of this experiment: Acumen qHTS Assay for Inhibitors of the mTORC1 Signaling Pathway in MEF (Tsc2-/-, p53-/-) Cells: Sytravon.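 For activity change, negative = inhibition: plate controls were DMSO for no effect and rapamycin for full effect.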 Note: nearly all actives have a fitted effect of over 50% in size. To be noted: phospho-rpS6 immunofluorescence/PI, 24 h; series mostly up to 38.3 µM; activity change, negative = inhibition: at the top concentration. The method in brief:
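Cell-based qHTS: Tsc2-/- p53-/- MEF, 24 h cpd, 37 °C; fix/perm, anti-phospho-S6 Alexa-488 + PI; Acumen 488 nm scan; pS6/PI ratio, % positive cells; rapamycin 7.5 nM = inhibition ref; PI count = viability.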
Regarding `Cc1ccc2c(=O)c(C(=O)c3ccccc3)cn(CC(=O)Nc3ccccc3C)c2n1`, the “activity change, negative = inhibition” value is inactive: -6.53%.

For the compound `COc1cc(NC(=O)Cn2cnc3sc(C)c(S(=O)(=O)N4CCC(C)CC4)c3c2=O)cc(OC)c1OC`, the “activity change, negative = inhibition” value was inactive: 10.8%. Consider `Cc1nc(-c2ccc(S(=O)(=O)NCc3ccc(OC(C)C)cc3)cc2)co1`, for which the “activity change, negative = inhibition” value was inactive: -1.63%.

For `O=C(COc1ccccc1F)Nc1ccc2nc(SCC(=O)N3CCCC3)sc2c1`, the “activity change, negative = inhibition” value was inactive: -0.435%. As for `CCCN1C(=O)C(O)(CC(=O)c2ccc(CC)cc2)c2cc(Br)ccc21` (configuration not stated), the Potency is active: 4.65 µM. In the case of `Cc1cccc(OCC(=O)Nc2nonc2-c2ccc(Br)cc2)c1C`, the “activity change, negative = inhibition” value was inactive: -4.16%. Same read-out and setting: to `CCOc1ccc(CC(=O)Nc2ccc3c(c2)N(C)C(=O)c2ccccc2S3)cc1OCC` belongs inactive: -8.99%; to `Cc1cccc(C)c1-n1ncc(C(=O)NCc2ccc3c(c2)OCO3)c1C1CCN(C(=O)OC(C)(C)C)CC1`, inactive: -13.3%. Regarding `CCCCN(C)CCCNC(=O)c1cc(=O)[nH]c2ccc(S(=O)(=O)N3CCCCC3)cc12`, the “activity change, negative = inhibition” value was inactive: 8.52%. For the compound `CC(=O)N1c2ccc(S(=O)(=O)NCC3CCC(C(=O)Nc4ccccc4C)CC3)cc2CC1C` (configuration not stated), the “activity change, negative = inhibition” value was inactive: -25.7%. On the same count and under the same terms, to `O=C(Nc1ccc(OC(F)(F)F)cc1)C1CCCN(S(=O)(=O)c2cccc3nonc23)C1` (configuration not stated) belongs inactive: -2.73%. Still for that read-out and setting: to `COc1ccc2c(c1)CCc1sc(NC(=O)c3ccc(Cl)cc3)nc1-2` belongs inactive: -6.81%; to `CCC1=Nc2cc(C(=O)NC(C)c3ccccc3)ccc2Sc2ccc(Cl)cc21` (configuration not stated), inactive: -15.8%; to `COCCCNC(=O)CN1C(=O)COc2ccc(S(=O)(=O)N3CCCCCC3)cc21`, inactive: -8.21%.

Take `Cc1ccc(NC(=O)CCc2c(C)nc3c(-c4ccccc4)c(C)nn3c2C)c(C)c1`: the “activity change, negative = inhibition” value was inactive: -0.641%. On to `COc1ccc(-n2c(=O)c3ccccc3n(CC(=O)NCCc3ccccc3)c2=O)c(OC)c1`, for which the “activity change, negative = inhibition” value is inactive: 23%. Still for that read-out and setting: the result for `Cc1cccc(-n2cc(-c3ccccc3)c3c(NC(C)C)ncnc32)c1` reads inactive: -17.1%; that for `CC1CCN(S(=O)(=O)c2cn(CC(=O)Nc3ccc(F)c(Cl)c3)c(=O)c3ccccc23)CC1`, inactive: 3.06%. For the compound `COC(=O)c1ccccc1NC(=O)CN(c1ccccc1OC)S(C)(=O)=O`, the “activity change, negative = inhibition” value was inactive: 6.29%. On to `Cc1ccc(NC(=O)CSc2nc(-c3ccc(F)cc3)nc3c2Cc2c(CO)cnc(C)c2O3)cc1C`, for which the “activity change, negative = inhibition” value was inactive: -1.42%. Same read-out and setting: to `CN(Cc1ccccc1)C(=O)CCS(=O)(=O)c1cc(Br)cc2c1N(C(=O)C1CC1)CC2` belongs inactive: -5.61%; to `O=C(COc1ccccc1F)Nc1ccccc1OCc1cc(=O)n2ccccc2n1`, inactive: 2.78%; to `CC(C)c1ccc(NC(=O)c2ccc(F)c(S(=O)(=O)N3CCCC3)c2)cc1`, inactive: 7.2%. `CCCc1nnc(N2C(=O)c3oc4ccc(F)cc4c(=O)c3C2c2ccc(C(=O)OC)cc2)s1` (configuration not stated): the “activity change, negative = inhibition” value is inactive: 1.64%.

In the case of `COc1ccccc1OCC(=O)Nc1nnc2n1CCS2`, the “activity change, negative = inhibition” value was inactive: -2.3%. With `O=C(C1CCC1)N1CCc2cc(S(=O)(=O)N3CCN(c4ccccc4)CC3)ccc21`, the “activity change, negative = inhibition” value was inactive: -9.41%. Same read-out and setting: to `COc1cc2ccccc2cc1C(=O)N1CCN(c2nc3c(C)cc(C)cc3s2)CC1` belongs inactive: -1.49%; to `CC1CCN(c2nnc(-n3cccc3CNc3cccc(F)c3)s2)CC1`, inactive: -3.91%. On the same count and under the same terms, the result for `CCOc1ccc(-n2cc(C(=O)Nc3ccccc3OCC)c3cc(OC)c(OC)cc3c2=O)cc1` reads inactive: -0.0125%; that for `Cc1cccc(NC(=O)C2CCN(S(=O)(=O)c3cccc4nsnc34)CC2)c1`, inactive: 1.28%. With `CCC(C)NC(=O)Cn1c(=O)n(CC2CCC(C(=O)NC)CC2)c(=O)c2sccc21` (configuration not stated), the “activity change, negative = inhibition” value was inactive: -4.81%.

`CCc1ccccc1NC(=O)N1CCN(c2nnc(C)c3c(C)n(-c4ccccc4)nc23)CC1`: the “activity change, negative = inhibition” value is inactive: -3.04%. Same read-out and setting: to `CCOC(=O)c1c(NC(=O)CS(=O)(=O)c2ccc(C)cc2)sc2c1CCC(C)C2` (configuration not stated) belongs inactive: -4.89%; to `CC1CCN(C(=O)Cn2cc(SCc3cccc(F)c3)c3ccccc32)CC1`, inactive: -20.1%; to `Cc1ccc2nc(-c3ccccc3O)c(Nc3ccccc3C)n2c1`, inactive: -2.72%. On the same count and under the same terms, the result for `O=c1cc(-c2ccccc2)nc(SCc2nc(-c3ccc(C(F)(F)F)cc3)no2)[nH]1` reads inactive: 3.84%. `COc1ccc(CNC(=O)CCc2cn(Cc3cc(C)ccc3C)c3ccccc23)cc1OC`: the “activity change, negative = inhibition” value is inactive: -16.9%. For `CC(C)(C)c1ccc(-c2nc3cc(NC(=O)c4cc5ccccc5o4)ccc3o2)cc1`, the “activity change, negative = inhibition” value was inactive: -3%. For the compound `CCCOc1ccc(-c2nc3ccccc3c(=O)o2)cc1`, the “activity change, negative = inhibition” value is inactive: 5.38%. On the same count and under the same terms, the result for `COc1ccc(NC(=O)NC2COc3ccccc3C2)c(OC)c1` (configuration not stated) reads inactive: 9.41%. Still for that read-out and setting: the result for `CC(C)c1ccc(NC(=O)C2CCN(S(=O)(=O)c3cccc4nsnc34)CC2)cc1` reads inactive: 0.961%; that for `O=C(Cn1ccn(-c2cccc(Cl)c2)c(=O)c1=O)NCCc1ccccc1`, inactive: -0.488%; that for `Cc1c(C(=O)Nc2nc(-c3ccc(F)cc3)ns2)oc2ccc(Br)cc12`, inactive: 2.92%. Take `COc1ccc2c(c1)cc(CNc1ccc(OC)c(OC)c1)c(=O)n2CC(=O)Nc1ccc(F)cc1`: the “activity change, negative = inhibition” value was inactive: -0.97%. The same measure, in the same setting: the result for `CN(CC(=O)Nc1cccc(Cl)c1)S(=O)(=O)c1ccc2[nH]c3c(c2c1)CCCC3` reads inactive: 0.346%; that for `O=S(=O)(NCC(c1ccco1)S(=O)(=O)c1ccccc1)c1ccccc1` (configuration not stated), inactive: -2.27%.

Consider `Cc1c(C(=O)Nc2ccc(F)c(F)c2)oc2ccc(S(=O)(=O)N3CCCCC3)cc12`, for which the “activity change, negative = inhibition” value is inactive: -1.11%.

Source of the values: PubChem BioAssay AID493208 (National Center for Advancing Translational Sciences (NCATS), 2011).
